Measured values taken from PMC9911399, “Two distinct binding modes provide the RNA-binding protein RbFox with extraordinary sequence specificity”.
Where a chain is given by its changes, count along the chain named. This is one part of the list.

B1: CCCAGCU (DNA:RNA)
RNA: GGGAGACCGGAAUUCAGAUUGUCCCCCAGCUUUAAAUCCCGUCGUAGCCACCA
DNA 1: CAATCTGAATTCCGGTCTCCC
DNA 2: TGGTGGCTACGACGGGATT
B2: CAUUAUC (DNA:RNA)
RNA: B1 RNA with C26A, C27U, A28U, G29A, C30U, U31C
DNA 1: CAATCTGAATTCCGGTCTCCC
DNA 2: TGGTGGCTACGACGGGATT
B3: GAUAAGU (DNA:RNA)
RNA: B1 RNA with C25G, C26A, C27U, G29A, C30G
DNA 1: CAATCTGAATTCCGGTCTCCC
DNA 2: TGGTGGCTACGACGGGATT
B4: AUAACUA (DNA:RNA)
RNA: B1 RNA with C25A, C26U, C27A, G29C, C30U, U31A
DNA 1: CAATCTGAATTCCGGTCTCCC
DNA 2: TGGTGGCTACGACGGGATT
B5: CCAGGUG (DNA:RNA)
RNA: B1 RNA with C27A, A28G, C30U, U31G
DNA 1: CAATCTGAATTCCGGTCTCCC
DNA 2: TGGTGGCTACGACGGGATT
B6: CGGCGUG (DNA:RNA)
RNA: B1 RNA with C26G, C27G, A28C, C30U, U31G
DNA 1: CAATCTGAATTCCGGTCTCCC
DNA 2: TGGTGGCTACGACGGGATT
B7: GUCAGGG (DNA:RNA)
RNA: B1 RNA with C25G, C26U, C30G, U31G
DNA 1: CAATCTGAATTCCGGTCTCCC
DNA 2: TGGTGGCTACGACGGGATT
B8: GCAUUAC (DNA:RNA)
RNA: B1 RNA with C25G, C27A, A28U, G29U, C30A, U31C
DNA 1: CAATCTGAATTCCGGTCTCCC
DNA 2: TGGTGGCTACGACGGGATT
B9: AAAAUCC (DNA:RNA)
RNA: B1 RNA with C25A, C26A, C27A, G29U, U31C
DNA 1: CAATCTGAATTCCGGTCTCCC
DNA 2: TGGTGGCTACGACGGGATT
B10: GCCGAGU (DNA:RNA)
RNA: B1 RNA with C25G, A28G, G29A, C30G
DNA 1: CAATCTGAATTCCGGTCTCCC
DNA 2: TGGTGGCTACGACGGGATT
B11: GCAUAAG (DNA:RNA)
RNA: B1 RNA with C25G, C27A, A28U, G29A, C30A, U31G
DNA 1: CAATCTGAATTCCGGTCTCCC
DNA 2: TGGTGGCTACGACGGGATT
B12: UGCUCGU (DNA:RNA)
RNA: B1 RNA with C25U, C26G, A28U, G29C, C30G
DNA 1: CAATCTGAATTCCGGTCTCCC
DNA 2: TGGTGGCTACGACGGGATT
B13: GGGUCAU (DNA:RNA)
RNA: B1 RNA with C25G, C26G, C27G, A28U, G29C, C30A
DNA 1: CAATCTGAATTCCGGTCTCCC
DNA 2: TGGTGGCTACGACGGGATT
B14: AAUGGGG (DNA:RNA)
RNA: B1 RNA with C25A, C26A, C27U, A28G, C30G, U31G
DNA 1: CAATCTGAATTCCGGTCTCCC
DNA 2: TGGTGGCTACGACGGGATT
B15: CUACAGA (DNA:RNA)
RNA: B1 RNA with C26U, C27A, A28C, G29A, C30G, U31A
DNA 1: CAATCTGAATTCCGGTCTCCC
DNA 2: TGGTGGCTACGACGGGATT
B16: UAUAGCA (DNA:RNA)
RNA: B1 RNA with C25U, C26A, C27U, U31A
DNA 1: CAATCTGAATTCCGGTCTCCC
DNA 2: TGGTGGCTACGACGGGATT
B17: UCAAAUU (DNA:RNA)
RNA: B1 RNA with C25U, C27A, G29A, C30U
DNA 1: CAATCTGAATTCCGGTCTCCC
DNA 2: TGGTGGCTACGACGGGATT
B18: CAUCUCG (DNA:RNA)
RNA: B1 RNA with C26A, C27U, A28C, G29U, U31G
DNA 1: CAATCTGAATTCCGGTCTCCC
DNA 2: TGGTGGCTACGACGGGATT
B19: GUAGUAC (DNA:RNA)
RNA: GGGAGACCGGAAUUCAGAUUGUCCGUAGUACUUAAAUCCCGUCGUAGCCACCA
DNA 1: CAATCTGAATTCCGGTCTCCC
DNA 2: TGGTGGCTACGACGGGATT
B20: UCUAUCC (DNA:RNA)
RNA: B1 RNA with C25U, C27U, G29U, U31C
DNA 1: CAATCTGAATTCCGGTCTCCC
DNA 2: TGGTGGCTACGACGGGATT
B21: AGCCAAC (DNA:RNA)
RNA: B19 RNA with G25A, U26G, A27C, G28C, U29A
DNA 1: CAATCTGAATTCCGGTCTCCC
DNA 2: TGGTGGCTACGACGGGATT
B22: UUGGGCC (DNA:RNA)
RNA: B19 RNA with G25U, A27G, U29G, A30C
DNA 1: CAATCTGAATTCCGGTCTCCC
DNA 2: TGGTGGCTACGACGGGATT
B23: AAUCCCA (DNA:RNA)
RNA: B1 RNA with C25A, C26A, C27U, A28C, G29C, U31A
DNA 1: CAATCTGAATTCCGGTCTCCC
DNA 2: TGGTGGCTACGACGGGATT
B24: AGCAUCC (DNA:RNA)
RNA: B1 RNA with C25A, C26G, G29U, U31C
DNA 1: CAATCTGAATTCCGGTCTCCC
DNA 2: TGGTGGCTACGACGGGATT
B25: GGUUCCC (DNA:RNA)
RNA: B19 RNA with U26G, A27U, G28U, U29C, A30C
DNA 1: CAATCTGAATTCCGGTCTCCC
DNA 2: TGGTGGCTACGACGGGATT
B26: AAGGCAU (DNA:RNA)
RNA: B19 RNA with G25A, U26A, A27G, U29C, C31U
DNA 1: CAATCTGAATTCCGGTCTCCC
DNA 2: TGGTGGCTACGACGGGATT
B27: UAGACAU (DNA:RNA)
RNA: B1 RNA with C25U, C26A, C27G, G29C, C30A
DNA 1: CAATCTGAATTCCGGTCTCCC
DNA 2: TGGTGGCTACGACGGGATT
B28: CGUAAGU (DNA:RNA)
RNA: B1 RNA with C26G, C27U, G29A, C30G
DNA 1: CAATCTGAATTCCGGTCTCCC
DNA 2: TGGTGGCTACGACGGGATT
B29: UAAGUAU (DNA:RNA)
RNA: B19 RNA with G25U, U26A, C31U
DNA 1: CAATCTGAATTCCGGTCTCCC
DNA 2: TGGTGGCTACGACGGGATT
B30: UCCGGAA (DNA:RNA)
RNA: B1 RNA with C25U, A28G, C30A, U31A
DNA 1: CAATCTGAATTCCGGTCTCCC
DNA 2: TGGTGGCTACGACGGGATT
B31: CCCAUAA (DNA:RNA)
RNA: B1 RNA with G29U, C30A, U31A
DNA 1: CAATCTGAATTCCGGTCTCCC
DNA 2: TGGTGGCTACGACGGGATT

Target: T1, RBFOX1 RRM RbFoxmut (Fox-RRM*) (Homo sapiens, UniProt Q9NWB1 109-208, R118D;E147R;N151S;E152T)
T1 sequence: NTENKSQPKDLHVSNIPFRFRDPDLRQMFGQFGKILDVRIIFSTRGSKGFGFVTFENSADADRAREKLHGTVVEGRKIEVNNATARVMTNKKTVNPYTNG
Test: EMSA; HiTS-Eq, 1 nM pool, 10 min; buffer printed only for the single-RNA assays: 10 mM Tris pH 7.5, 150 mM NaCl, 3.4 mM EDTA, 0.001% NP-40, 30 C
Settings: tags: His6 N-terminal (pET28a); label: 5' 32P
Summary of the method: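 Purified wild-type or mutant RbFox RRM at increasing concentrations was equilibrated with 1 nM of 5′-radiolabelled RNA carrying 7 randomized nucleotides for 10 min in 50 µL. Unbound RNA was separated by 8% native PAGE and sequenced. Relative association constants came from read-count changes of each RNA species compared with the control reaction, normalised to the cognate motif.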

| Binder | binding signal |
| --- | --- |
| B1 | 0.083 KA relative to UGCAUGU |
| B2 | 0.095 KA relative to UGCAUGU |
| B3 | 0.0905 KA relative to UGCAUGU |
| B4 | 0.126 KA relative to UGCAUGU |
| B5 | 0.126 KA relative to UGCAUGU |
| B6 | 0.205 KA relative to UGCAUGU |
| B7 | 0.093 KA relative to UGCAUGU |
| B8 | 0.0935 KA relative to UGCAUGU |
| B9 | 0.0353 KA relative to UGCAUGU |
| B10 | 0.123 KA relative to UGCAUGU |
| B11 | 0.139 KA relative to UGCAUGU |
| B12 | 0.205 KA relative to UGCAUGU |
| B13 | 0.106 KA relative to UGCAUGU |
| B14 | 0.0816 KA relative to UGCAUGU |
| B15 | 0.067 KA relative to UGCAUGU |
| B16 | 0.12 KA relative to UGCAUGU |

| Binder | binding signal |
| --- | --- |
| B17 | 0.0774 KA relative to UGCAUGU |
| B18 | 0.0883 KA relative to UGCAUGU |
| B19 | 0.102 KA relative to UGCAUGU |
| B20 | 0.0745 KA relative to UGCAUGU |
| B21 | 0.0866 KA relative to UGCAUGU |
| B22 | 0.216 KA relative to UGCAUGU |
| B23 | 0.0738 KA relative to UGCAUGU |
| B24 | 0.237 KA relative to UGCAUGU |
| B25 | 0.146 KA relative to UGCAUGU |
| B26 | 0.0882 KA relative to UGCAUGU |
| B27 | 0.0611 KA relative to UGCAUGU |
| B28 | 0.115 KA relative to UGCAUGU |
| B29 | 0.0876 KA relative to UGCAUGU |
| B30 | 0.0662 KA relative to UGCAUGU |
| B31 | 0.0954 KA relative to UGCAUGU |
